Results on 58 compounds are retold here after PMC4336329 (PLoS ONE, 2015).

The structures appear in SMILES notation. Out of some 310,000 compounds screened, about 14,000 (4.5%) showed an effect of 50% or more. Effects have a minus sign here. The list shows a part of the results.
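Further: peak tail current of the secondary pulse compared with the same well before compound.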

For this experiment, the target named is human ether-à-go-go-related gene (hERG) potassium channel (human, UniProt Q12809). The experiment in a line: primary screen, population patch clamp on CHO cells stably expressing hERG.
human ether-à-go-go-related gene (hERG) potassium channel, sequence (Q12809 whole entry, looked up): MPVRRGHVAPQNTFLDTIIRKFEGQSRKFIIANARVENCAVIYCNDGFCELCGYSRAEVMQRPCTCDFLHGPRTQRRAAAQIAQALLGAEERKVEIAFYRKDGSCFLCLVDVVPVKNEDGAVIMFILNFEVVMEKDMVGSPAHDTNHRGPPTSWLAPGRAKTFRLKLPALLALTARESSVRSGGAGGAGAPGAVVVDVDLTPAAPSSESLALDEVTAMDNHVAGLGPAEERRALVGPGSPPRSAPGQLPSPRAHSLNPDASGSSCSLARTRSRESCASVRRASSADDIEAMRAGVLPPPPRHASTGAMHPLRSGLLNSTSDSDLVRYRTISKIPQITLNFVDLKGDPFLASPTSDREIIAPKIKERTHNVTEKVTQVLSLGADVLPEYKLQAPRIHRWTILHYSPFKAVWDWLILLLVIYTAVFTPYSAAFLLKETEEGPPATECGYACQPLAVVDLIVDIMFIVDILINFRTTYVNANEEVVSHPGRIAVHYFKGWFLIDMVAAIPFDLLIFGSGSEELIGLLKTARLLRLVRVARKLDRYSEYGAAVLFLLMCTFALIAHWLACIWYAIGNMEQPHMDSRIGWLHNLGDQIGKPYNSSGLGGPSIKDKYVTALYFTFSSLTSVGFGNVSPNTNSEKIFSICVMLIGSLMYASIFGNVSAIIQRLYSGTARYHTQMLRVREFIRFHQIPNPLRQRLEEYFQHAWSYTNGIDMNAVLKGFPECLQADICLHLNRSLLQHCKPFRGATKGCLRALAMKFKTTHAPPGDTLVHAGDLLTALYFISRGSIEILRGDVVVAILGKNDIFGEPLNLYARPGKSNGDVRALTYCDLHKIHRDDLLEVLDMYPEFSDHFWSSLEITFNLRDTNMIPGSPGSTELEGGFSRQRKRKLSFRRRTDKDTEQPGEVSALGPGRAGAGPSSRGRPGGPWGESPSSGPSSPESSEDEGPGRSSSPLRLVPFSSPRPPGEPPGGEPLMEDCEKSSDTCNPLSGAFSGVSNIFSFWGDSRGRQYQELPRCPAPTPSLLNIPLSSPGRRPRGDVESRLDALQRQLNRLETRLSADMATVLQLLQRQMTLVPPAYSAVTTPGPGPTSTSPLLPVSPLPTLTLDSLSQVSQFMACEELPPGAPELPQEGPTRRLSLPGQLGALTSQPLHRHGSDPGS
On to `COc1cccc(N2CCN(CC(=O)NCc3ccccc3)CC2)c1`, for which the “hERG current change (%, negative = inhibition) at 10uM” value was -5.53%. Next, `C#CCOCCOCCOCCNc1nc(N2CCN(C(=O)[C@H](CCCC[NH3+])n3cc(CCC(=O)O)nn3)CC2)nc(N2CCN(C(=O)[C@H](CCCC[NH3+])n3cc(CC(C)O)nn3)CC2)n1.[Cl-]` (stereo partly shown): 14.7%. As for `CC(=O)c1cnn(-c2ccc(Cl)cc2)c1C`, the “hERG current change (%, negative = inhibition) at 10uM” value was determined as 7.34%. To `CC(NC(=O)C1CCC(=O)N1Cc1ccc(F)cc1)c1ccc2c(c1)OCCO2` (stereo not shown) belongs 2.62%. As to `CS(=O)(=O)N(CCc1ccccc1)CC(=O)NCC1CCCO1` (stereo not shown), the “hERG current change (%, negative = inhibition) at 10uM” value came out at 8.98%. With `O=C(COC(=O)c1ccccn1)Nc1ccc(S(=O)(=O)N2CCOCC2)cc1`, the “hERG current change (%, negative = inhibition) at 10uM” value is -0.019%. Next, `COc1ccc(Nc2nc(C)cc(=O)[nH]2)cc1`: 19.6%. To `CC1CCCN(C(=O)C(=O)c2cn(CC(=O)N3CCCCCC3)c3ccccc23)C1` (stereo not shown) belongs 17.2%.

In the case of `CN(CC(=O)Nc1c(Cl)cccc1Cl)C(=O)CC1Sc2ccccc2NC1=O` (stereo not shown), the “hERG current change (%, negative = inhibition) at 10uM” value is -18.3%. Consider `COc1cc2c(cc1OC)C(c1cc(Br)ccc1O)N(C(C)=O)CC2` (stereo not shown), for which the “hERG current change (%, negative = inhibition) at 10uM” value was 10.3%. Next, `Cn1cnnc1SCC(=O)Nc1ccc(Cl)cc1`: -3.12%; `CCSc1nc(O)cc(=O)[nH]1`: 14.9%.

Regarding `Cc1ccc(C(=O)Nc2c(-c3cccs3)c(=O)c3ccccc3n2C)cc1`, the “hERG current change (%, negative = inhibition) at 10uM” value is -5.26%. Take `O=C(NCC1CCCCC1)c1ccc(=O)[nH]c1`: the “hERG current change (%, negative = inhibition) at 10uM” value turned out to be 37.2%. Next, `CSCc1c(C(=O)OCC(=O)NC2CCCCC2)oc2ccccc12`: 1.84%; `CCCn1c(N)c(C(=O)CN(C)CC(=O)Nc2cccc(F)c2)c(=O)[nH]c1=O`: -75.1%; `Cc1cc(C)c(NC(=O)Nc2ccccc2C)c(Cl)c1`: 8.77%.

With `CCn1c(SCC(=O)C(C)(C)C)nnc1-c1cccnc1`, the “hERG current change (%, negative = inhibition) at 10uM” value was -0.363%. To `O=C(NC1CCSC1=O)c1ccccc1` (stereo not shown) belongs 15%.

As for `CCN1CCN(c2nc3c(c(=O)[nH]c(=O)n3C)n2CCSc2nc3ccccc3s2)CC1`, the “hERG current change (%, negative = inhibition) at 10uM” value was -21.6%. To `CC(=O)c1ccc(NC(=O)CCNS(=O)(=O)c2cc(Br)cnc2N)cc1` belongs 11.5%. Next, `COc1cccc(/C=N/NC(=O)c2[nH]nc3c2CCc2ccccc2-3)c1`: -13%. Next, `Cc1ccc(-c2nc(CN(Cc3c(C)nn(C)c3C)C(C)C)c(C)o2)o1`: -5.04%; `CCOC(=O)N1CCN(C(=O)CCn2c(=S)[nH]c3ccsc3c2=O)CC1`: 18.2%; `CNC(=O)c1cc2cc(Br)ccc2s1`: 10.1%. For `O=C(NCc1ccccc1)c1ccc(Br)cc1`, the “hERG current change (%, negative = inhibition) at 10uM” value worked out at 8.14%. To `Cc1ccnc(NS(=O)(=O)c2ccc(NC(=O)c3snnc3C)cc2)n1` belongs 20.1%.

As to `COCCNC(=O)c1c[nH]c2ccc(S(=O)(=O)N3CCOCC3)cc2c1=O`, the “hERG current change (%, negative = inhibition) at 10uM” value was 26.1%. Next, `CCCc1[nH]nc2c1C(c1cn[nH]c1-c1ccc(F)cc1)C(C#N)=C(N)O2` (stereo not shown): 2.69%. Consider `COc1cc(NC(=O)c2cc(OC)c(OC)c(OC)c2)cc(-n2cnnn2)c1`, for which the “hERG current change (%, negative = inhibition) at 10uM” value was 17.4%.

Take `Cn1c(CCNC(=O)OC(C)(C)C)n[nH]c1=S`: the “hERG current change (%, negative = inhibition) at 10uM” value was 14%.

For the compound `CC(=NCCc1c(C)[nH]c2ccc(OCc3ccccc3)cc12)C1=C(O)CC(c2ccccc2)CC1=O` (stereo not shown), the “hERG current change (%, negative = inhibition) at 10uM” value worked out at 25.5%. In the case of `O=C(Nc1ccc(NC(=O)C2CC2)nc1)c1ccco1`, the “hERG current change (%, negative = inhibition) at 10uM” value was found to be 4.81%.

In the case of `CC1(C)Cc2cccc(OCC(=O)OCC(=O)c3ccccc3)c2O1`, the “hERG current change (%, negative = inhibition) at 10uM” value worked out at 1.43%.

As for `O=C(NCCN1CCOCC1)c1cccc(S(=O)(=O)N(Cc2ccccc2)c2ccccc2)c1`, the “hERG current change (%, negative = inhibition) at 10uM” value is listed as -19.3%.

As to `O=C(NC(NC1CCS(=O)(=O)C1)C(=O)c1ccccc1)c1ccc(Cl)cc1` (stereo not shown), the “hERG current change (%, negative = inhibition) at 10uM” value is listed as -51.6%. To `COc1ccc(NC(=O)Cc2c(F)c(F)c(F)c(F)c2F)cc1OC` belongs 14.9%; to `O=C(CN1CCN(Cc2ccc(F)cc2)CC1)NCCc1ccccc1`, -13.6%; to `O=C(COc1ccc2ccccc2c1)N/N=C/c1ccccn1`, -17.1%. In the case of `COCCCNC(=O)Cc1c(C)c2cc3c(cc2oc1=O)OC(C)(C)CC3`, the “hERG current change (%, negative = inhibition) at 10uM” value was 7.74%.

Take `O=C(CCCC(=O)OCC(=O)c1ccc(Cl)cc1)NC1CCCCC1`: the “hERG current change (%, negative = inhibition) at 10uM” value stood at 0.716%. `O=C(O)C1CC(c2ccc(F)cc2)=NO1` (stereo not shown): the “hERG current change (%, negative = inhibition) at 10uM” value is recorded as -0.111%.

With `Cc1cc(C(=O)COc2ccccc2C(N)=O)c(C)n1C1CC1`, the “hERG current change (%, negative = inhibition) at 10uM” value stood at 17.2%. For `CC1CCc2c(sc3nc(SCC(=O)O)n(-c4ccccc4)c(=O)c23)C1` (stereo not shown), the “hERG current change (%, negative = inhibition) at 10uM” value is 15.4%.

In the case of `COC(=O)c1c(N2C(=O)CC(Sc3ccccc3C(=O)O)C2=O)sc2c1CCCC2` (stereo not shown), the “hERG current change (%, negative = inhibition) at 10uM” value worked out at 16.7%. Next, `O=C(c1ccccc1Cl)N1N=C(c2cccs2)CC1c1cccc(O)c1` (stereo not shown): 8.27%. Turning to `Cn1cc(S(=O)(=O)N2CCN(c3ccc(F)cc3)CC2)c(=O)n(C)c1=O`, the “hERG current change (%, negative = inhibition) at 10uM” value is given as -18.7%. Regarding `Cc1cc(C(=O)COc2ccc([N+](=O)[O-])cc2)c(C)n1C1CC1`, the “hERG current change (%, negative = inhibition) at 10uM” value was -2.41%. Next, `N#C/C(=C1\CCCN1)c1nc(-c2ccccc2)cs1`: -1.8%; `CCn1c(SCC(=O)c2ccc(Cl)cc2)nnc1-c1cccs1`: -10.8%. As for `CC(=O)n1cc(/C=N/NC(=O)c2sc(C)nc2C)c2ccccc21`, the “hERG current change (%, negative = inhibition) at 10uM” value came out at 20%. Next, `CCCC1/C(=N/O)CC(c2ccccc2)NC1c1ccccc1` (stereo not shown): 21.5%; `COC(=O)C1CC(O)CN1C(=O)NC1CCCCC1` (stereo not shown): -26.4%. On to `CCOc1ccc(CNC(=O)CCS(=O)(=O)Cc2ccc(C)cc2)cc1OC`, for which the “hERG current change (%, negative = inhibition) at 10uM” value is on record as 18.9%. To `Cc1ccc(N(CC(=O)NCc2ccccc2)C(=O)c2csnn2)cc1` belongs -4.56%; to `COc1ccc(CC(=O)Nc2nnc(C)s2)cc1`, 9.08%.

For the compound `OC(COc1ccc(Br)cc1)Cn1ccnc1` (stereo not shown), the “hERG current change (%, negative = inhibition) at 10uM” value was 3.39%. Next, `COc1ccccc1NC(=O)N1CCOCC1`: 21.9%.
